Measured values as given in the supplement of paper PMC10037445.
± gives the standard deviation of the averaged measurements. Over roughly 2,900 compounds, “NF-kB SEAP reporter activity, fold change vs agonist alone” has its median near 0.99; the highest 2% begin near 2.6. The list shows a part of the results.

Key:
RAW-Dual [1] = test: NF-kB SEAP reporter activity, fold change vs agonist alone; higher = enhanced NF-kB activity; details: library stock concentration (final ~1000-fold dilution): 10 mM
In short: (§1)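 Cytotoxic wells were those whose IncuCyte confluency was below 70% of agonist controls in both mask sets. The cells were RAW-Dual macrophages at 50,000 cells/well in DMEM on 384-well plates, dosed with 50 nL of library stock by pin tool, stimulated with a PRR agonist 1 h later, and kept at 37 °C, 5% CO2 for 20 hours. IRF and NF-κB reporter activity, as fold change over agonist-alone wells, came from supernatant read by QuantiLuc luminescence and QuantiBlue absorbance, respectively.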

RAW-Dual [2] = test: NF-kB SEAP reporter activity, fold change vs agonist alone; cytotoxicity flag (confluency mask): not cytotoxic; higher = enhanced NF-kB activity
In short: as §1

RAW-Dual [3] = test: NF-kB SEAP reporter activity, fold change vs agonist alone; cytotoxicity flag (confluency mask): cytotoxic (confluency <70% of control); higher = enhanced NF-kB activity
In short: as §1

[4] = cytotoxicity flag (confluency mask): not cytotoxic, agonist: Imiquimod (TLR7) […]
[5] = cytotoxicity flag (confluency mask): not cytotoxic, agonist: MPLA (TLR4) […]
[6] = agonist: ODN 1826 (TLR9) 0.5 ug/mL
[7] = agonist: Pam2CSK4 (TLR2/6) 0.1 ug/mL
[8] = agonist: Pam3CSK4 (TLR2/1) 0.1 ug/mL
[9] = cytotoxicity flag (confluency mask): cytotoxic (confluency <70% of control), agonist: MPLA (TLR4) […]

CC(=O)OC1CC/C(C)=C/CC/C(C)=C/CC2(C(C)C)CCC1(C)O2 (stereo unspecified)
NF-kB SEAP reporter activity (RAW-Dual [1]; [4]): 0.8118 ± 0.0079 | NF-kB SEAP reporter activity (RAW-Dual [1]; [5]): 1.05 ± 0.021

CC(=O)OC1CC/C(C)=C/CC/C(C)=C/CC2(C(C)C)CCC1(C)O2 (stereo unspecified) (library stock concentration (final ~1000-fold dilution): 10 mM)
NF-kB SEAP reporter activity (RAW-Dual [2]; agonist: LPS (TLR4) 0.1 ug/mL): 1.04 ± 0.06 | NF-kB SEAP reporter activity (RAW-Dual [2]; [6]): 0.72 ± 0.031 | NF-kB SEAP reporter activity (RAW-Dual [2]; [7]): 0.933 ± 0.011 | NF-kB SEAP reporter activity (RAW-Dual [2]; [8]): 1.23 ± 0.23

CCC(F)(F)c1cc(N2CCC(S(C)(=O)=O)CC2)nc2sc(C(N)=O)c(N)c12 (library stock concentration (final ~1000-fold dilution): 10 mM)
NF-kB SEAP reporter activity (RAW-Dual [2]; agonist: LPS (TLR4) 0.1 ug/mL): 0.328 | NF-kB SEAP reporter activity (RAW-Dual [2]; [6]): 0.405 | NF-kB SEAP reporter activity (RAW-Dual [2]; [7]): 0.128 | NF-kB SEAP reporter activity (RAW-Dual [2]; [8]): 0.226

CCC(F)(F)c1cc(N2CCC(S(C)(=O)=O)CC2)nc2sc(C(N)=O)c(N)c12
NF-kB SEAP reporter activity (RAW-Dual [1]; [4]): 0.658 | NF-kB SEAP reporter activity (RAW-Dual [1]; [5]): 0.398

Cc1cn(C2OC(CO)C(O)C2F)c(=O)[nH]c1=O (stereo unspecified)
NF-kB SEAP reporter activity (RAW-Dual [1]; [4]): 1.04 | NF-kB SEAP reporter activity (RAW-Dual [1]; [5]): 1.06

Cc1cn(C2OC(CO)C(O)C2F)c(=O)[nH]c1=O (stereo unspecified) (library stock concentration (final ~1000-fold dilution): 10 mM)
NF-kB SEAP reporter activity (RAW-Dual [2]; agonist: LPS (TLR4) 0.1 ug/mL): 1.04 | NF-kB SEAP reporter activity (RAW-Dual [2]; [6]): 1.03 | NF-kB SEAP reporter activity (RAW-Dual [2]; [7]): 1.15 | NF-kB SEAP reporter activity (RAW-Dual [2]; [8]): 1.27

CC(=O)N1CCN(CCOc2ccc(C3CCN(C4=Nn5c(nnc5C(F)(F)F)CC4)CC3)cc2)CC1 (library stock concentration (final ~1000-fold dilution): 10 mM)
NF-kB SEAP reporter activity (RAW-Dual [3]; agonist: LPS (TLR4) 0.1 ug/mL): 2.42 | NF-kB SEAP reporter activity (RAW-Dual [3]; [6]): 1.81 | NF-kB SEAP reporter activity (RAW-Dual [3]; [7]): 1.04 | NF-kB SEAP reporter activity (RAW-Dual [3]; [8]): 1.3

CC(=O)N1CCN(CCOc2ccc(C3CCN(C4=Nn5c(nnc5C(F)(F)F)CC4)CC3)cc2)CC1
NF-kB SEAP reporter activity (RAW-Dual [1]; cytotoxicity flag (confluency mask): cytotoxic (confluency <70% of control), agonist: Imiquimod (TLR7) […]): 2.1 | NF-kB SEAP reporter activity (RAW-Dual [1]; [9]): 2.22

O=C(O)c1ccc(/C=C2/SC(=S)N(c3cccc(C(F)(F)F)c3)C2=O)cc1 (library stock concentration (final ~1000-fold dilution): 10 mM)
NF-kB SEAP reporter activity (RAW-Dual [2]; agonist: LPS (TLR4) 0.1 ug/mL): 0.668 | NF-kB SEAP reporter activity (RAW-Dual [2]; [6]): 0.623 | NF-kB SEAP reporter activity (RAW-Dual [2]; [7]): 0.845 | NF-kB SEAP reporter activity (RAW-Dual [2]; [8]): 0.605

O=C(O)c1ccc(/C=C2/SC(=S)N(c3cccc(C(F)(F)F)c3)C2=O)cc1
NF-kB SEAP reporter activity (RAW-Dual [1]; [4]): 0.683 | NF-kB SEAP reporter activity (RAW-Dual [1]; [5]): 0.827

Cn1cc(C=C2C(=O)Nc3cccnc32)c2ccccc21
NF-kB SEAP reporter activity (RAW-Dual [1]; [4]): 0.959 | NF-kB SEAP reporter activity (RAW-Dual [1]; [5]): 1.19

Cn1cc(C=C2C(=O)Nc3cccnc32)c2ccccc21 (library stock concentration (final ~1000-fold dilution): 10 mM)
NF-kB SEAP reporter activity (RAW-Dual [2]; agonist: LPS (TLR4) 0.1 ug/mL): 0.961 | NF-kB SEAP reporter activity (RAW-Dual [2]; [6]): 0.793 | NF-kB SEAP reporter activity (RAW-Dual [2]; [7]): 0.463 | NF-kB SEAP reporter activity (RAW-Dual [2]; [8]): 0.619

O=c1c2cc(O)c(O)cc2oc2cc(O)c([C@@H]3O[C@H](CO)[C@@H](O)[C@H](O)[C@H]3O)c(O)c12
NF-kB SEAP reporter activity (RAW-Dual [1]; [4]): 0.937 | NF-kB SEAP reporter activity (RAW-Dual [1]; [5]): 1.02

O=c1c2cc(O)c(O)cc2oc2cc(O)c([C@@H]3O[C@H](CO)[C@@H](O)[C@H](O)[C@H]3O)c(O)c12 (library stock concentration (final ~1000-fold dilution): 10 mM)
NF-kB SEAP reporter activity (RAW-Dual [2]; agonist: LPS (TLR4) 0.1 ug/mL): 1.31 | NF-kB SEAP reporter activity (RAW-Dual [2]; [6]): 1.11 | NF-kB SEAP reporter activity (RAW-Dual [2]; [7]): 1.12 | NF-kB SEAP reporter activity (RAW-Dual [2]; [8]): 0.916

CN1CCN(CCCN2c3ccccc3Sc3ccc(Cl)cc32)CC1.O=C(O)/C=C\C(=O)O.O=C(O)/C=C\C(=O)O (library stock concentration (final ~1000-fold dilution): 10 mM)
NF-kB SEAP reporter activity (RAW-Dual [3]; agonist: LPS (TLR4) 0.1 ug/mL): 0.548 | NF-kB SEAP reporter activity (RAW-Dual [3]; [6]): 0.394 | NF-kB SEAP reporter activity (RAW-Dual [3]; [7]): 0.793 | NF-kB SEAP reporter activity (RAW-Dual [3]; [8]): 0.797

CN1CCN(CCCN2c3ccccc3Sc3ccc(Cl)cc32)CC1.O=C(O)/C=C\C(=O)O.O=C(O)/C=C\C(=O)O
NF-kB SEAP reporter activity (RAW-Dual [1]; [9]): 1.42

CC(C)n1c(C=CC(O)CC(O)CC(=O)O)c(-c2ccc(F)cc2)c2ccccc21 (stereo unspecified)
NF-kB SEAP reporter activity (RAW-Dual [1]; [4]): 2.45 | NF-kB SEAP reporter activity (RAW-Dual [1]; [5]): 2.14

CC(C)n1c(C=CC(O)CC(O)CC(=O)O)c(-c2ccc(F)cc2)c2ccccc21 (stereo unspecified) (library stock concentration (final ~1000-fold dilution): 10 mM)
NF-kB SEAP reporter activity (RAW-Dual [2]; agonist: LPS (TLR4) 0.1 ug/mL): 3.64 | NF-kB SEAP reporter activity (RAW-Dual [2]; [6]): 2.92 | NF-kB SEAP reporter activity (RAW-Dual [2]; [7]): 2.13 | NF-kB SEAP reporter activity (RAW-Dual [2]; [8]): 3.38

COc1cc(Nc2ncc(F)c(Nc3ccc4c(n3)N(COP(=O)(O)O)C(=O)C(C)(C)O4)n2)cc(OC)c1OC (library stock concentration (final ~1000-fold dilution): 10 mM)
NF-kB SEAP reporter activity (RAW-Dual [2]; agonist: LPS (TLR4) 0.1 ug/mL): 0.47 | NF-kB SEAP reporter activity (RAW-Dual [2]; [6]): 1.02 | NF-kB SEAP reporter activity (RAW-Dual [2]; [7]): 0.192 | NF-kB SEAP reporter activity (RAW-Dual [2]; [8]): 0.787

COc1cc(Nc2ncc(F)c(Nc3ccc4c(n3)N(COP(=O)(O)O)C(=O)C(C)(C)O4)n2)cc(OC)c1OC
NF-kB SEAP reporter activity (RAW-Dual [1]; [4]): 1.06 | NF-kB SEAP reporter activity (RAW-Dual [1]; [5]): 1.21

CC1(O)CC(c2nc(-c3ccc4ccc(-c5ccccc5)nc4c3)c3c(N)nccn23)C1 (stereo unspecified) (library stock concentration (final ~1000-fold dilution): 10 mM)
NF-kB SEAP reporter activity (RAW-Dual [2]; agonist: LPS (TLR4) 0.1 ug/mL): 2.31 | NF-kB SEAP reporter activity (RAW-Dual [2]; [6]): 0.319 | NF-kB SEAP reporter activity (RAW-Dual [2]; [7]): 0.761 | NF-kB SEAP reporter activity (RAW-Dual [2]; [8]): 0.913

CC1(O)CC(c2nc(-c3ccc4ccc(-c5ccccc5)nc4c3)c3c(N)nccn23)C1 (stereo unspecified)
NF-kB SEAP reporter activity (RAW-Dual [1]; [4]): 1.34 | NF-kB SEAP reporter activity (RAW-Dual [1]; [5]): 1.41

CNC(=O)Nc1ccc(-c2nc(N3CC4CCC(C3)O4)c3cnn(C4CCC5(CC4)OCCO5)c3n2)cc1 (library stock concentration (final ~1000-fold dilution): 10 mM)
NF-kB SEAP reporter activity (RAW-Dual [2]; agonist: LPS (TLR4) 0.1 ug/mL): 1.44 | NF-kB SEAP reporter activity (RAW-Dual [2]; [6]): 0.918 | NF-kB SEAP reporter activity (RAW-Dual [2]; [7]): 1.08 | NF-kB SEAP reporter activity (RAW-Dual [2]; [8]): 0.709

CNC(=O)Nc1ccc(-c2nc(N3CC4CCC(C3)O4)c3cnn(C4CCC5(CC4)OCCO5)c3n2)cc1
NF-kB SEAP reporter activity (RAW-Dual [1]; [4]): 0.92 | NF-kB SEAP reporter activity (RAW-Dual [1]; [5]): 0.956
